The chains are these.
B1: Caulobacter ParB omega fusion; a variant is named by its letters at X, in order, B8GW30 (parent)
chain: MESVVVGEPGMSEGRRGLGRGLSALLGEVDAAPAQAPGEQLGGSREAPIEILQRNPDQPRRTFREEDLEDLSNSIREKGVLQPILVRPSPDTAGEYQIVAGERAWRAAQRAGLKTVPIMVRELDDLAVLEIGIIENVQRADLNVLEEALSYKVLMEKFERTQENIAQTIGKSXSHVANXMRLLXLPDEVQSYLVSGELTAXHARAIAAAADPVALAKQIIEGGLSVRETEALARKAPNLSAGKSKGGRPPRVKDTDTQALESDLSSVLGLDVSIDHRGSTGTLTITYATLEQLDDLCNRLTRGI

Whole data set: some 81,000 sequences, median “one-hybrid fitness for binding parS DNA” near -0.17, cut for the highest 2% near 0.51. The list shows a part of the results.

This assay covers variants of B1. As to the kind of experiment: one-hybrid fitness for binding parS DNA (scaled: cognate 1, non-cognate 0); higher = stronger binding. As to conditions: with parS DNA site. Put shortly:
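Fitness here means the log change in variant-to-wild-type read ratio between plasmids sequenced before and after selection. That scale was set so cognate equals 1 and non-cognate equals 0. The selection was a bacterial one-hybrid screen of Caulobacter ParB libraries, four specificity codons randomised, in E. coli USO carrying a HIS3 reporter with the site 19 bp from the promoter, grown 48 hours at 37°C on M9-minus-histidine with 0.1 mM IPTG and 5 mM 3-AT.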
For RVWL, the “one-hybrid fitness for binding parS DNA” value was not above 0.2.

In the case of PSSC, the “one-hybrid fitness for binding parS DNA” value was not above 0.2.

As to RCQK, the “one-hybrid fitness for binding parS DNA” value is not above 0.2. To SHWC belongs not above 0.2. In the case of INCG it was not above 0.2. Turning to LQYM, the “one-hybrid fitness for binding parS DNA” value was not above 0.2. To KHLC belongs not above 0.2; to KKPY, not above 0.2. To RWCP belongs not above 0.2; to EVMV, not above 0.2. To GNWR belongs not above 0.2. With NPIT, the “one-hybrid fitness for binding parS DNA” value is not above 0.2. As for LESV, the “one-hybrid fitness for binding parS DNA” value is not above 0.2. In the case of TGPL it was not above 0.2. As for MNKR, the “one-hybrid fitness for binding parS DNA” value is not above 0.2.

In the case of ALME, the “one-hybrid fitness for binding parS DNA” value was not above 0.2. In the case of LTTP it was not above 0.2; in that of TCLI, not above 0.2; in that of VHRR, not above 0.2. To LMET belongs not above 0.2. In the case of HACT, the “one-hybrid fitness for binding parS DNA” value was not above 0.2. In the case of HKAG it was not above 0.2. With KLTL, the “one-hybrid fitness for binding parS DNA” value was not above 0.2. For the variant VTPS, the “one-hybrid fitness for binding parS DNA” value was not above 0.2. To VHIG belongs not above 0.2. To DGRY belongs not above 0.2.

In the case of TILV, the “one-hybrid fitness for binding parS DNA” value is not above 0.2. AIYV: the “one-hybrid fitness for binding parS DNA” value is not above 0.2.

Take QTWT: the “one-hybrid fitness for binding parS DNA” value is not above 0.2.

On to QYSM, for which the “one-hybrid fitness for binding parS DNA” value is not above 0.2. Consider SKPI, for which the “one-hybrid fitness for binding parS DNA” value is not above 0.2.

For the variant YDPM, the “one-hybrid fitness for binding parS DNA” value is not above 0.2. To TRRG belongs not above 0.2; to PDLS, not above 0.2.

As for HSMI, the “one-hybrid fitness for binding parS DNA” value was not above 0.2. To AVAL belongs not above 0.2; to TVLQ, not above 0.2; to FKCS, not above 0.2.

For TICV, the “one-hybrid fitness for binding parS DNA” value was not above 0.2. Take DRHA: the “one-hybrid fitness for binding parS DNA” value is not above 0.2.

With PPVG, the “one-hybrid fitness for binding parS DNA” value is not above 0.2.

For GATE, the “one-hybrid fitness for binding parS DNA” value is not above 0.2. Regarding LLAC, the “one-hybrid fitness for binding parS DNA” value was not above 0.2. To PGHW belongs not above 0.2; to DNRI, not above 0.2; to QRID, not above 0.2. With VPYR, the “one-hybrid fitness for binding parS DNA” value was not above 0.2. Turning to QDKI, the “one-hybrid fitness for binding parS DNA” value was not above 0.2. Turning to MDSS, the “one-hybrid fitness for binding parS DNA” value was not above 0.2. In the case of PMKY, the “one-hybrid fitness for binding parS DNA” value is not above 0.2. In the case of MLNW it was not above 0.2; in that of VSPR, not above 0.2. MHWS: the “one-hybrid fitness for binding parS DNA” value was not above 0.2. YSLL: the “one-hybrid fitness for binding parS DNA” value is not above 0.2.

Take TCYH: the “one-hybrid fitness for binding parS DNA” value was not above 0.2. To IESG belongs not above 0.2.

On to TNKL, for which the “one-hybrid fitness for binding parS DNA” value was not above 0.2.

Regarding IGYR, the “one-hybrid fitness for binding parS DNA” value is not above 0.2. In the case of GPTW it was not above 0.2; in that of DASF, not above 0.2.

With RGSQ, the “one-hybrid fitness for binding parS DNA” value was not above 0.2. As for REWT, the “one-hybrid fitness for binding parS DNA” value was not above 0.2. To TLIY belongs not above 0.2; to VQPW, not above 0.2; to GRTW, not above 0.2. In the case of ECRG it was not above 0.2; in that of KCQS, not above 0.2. To NHSG belongs not above 0.2; to TPYI, not above 0.2. For the variant EDLD, the “one-hybrid fitness for binding parS DNA” value is not above 0.2. ATRF: the “one-hybrid fitness for binding parS DNA” value was not above 0.2. With VFAG, the “one-hybrid fitness for binding parS DNA” value is not above 0.2.

Consider GDNV, for which the “one-hybrid fitness for binding parS DNA” value was not above 0.2. To TGEF belongs not above 0.2; to QCIL, not above 0.2; to QQWC, not above 0.2. In the case of ISRT it was not above 0.2; in that of LFQG, not above 0.2. On to HMNL, for which the “one-hybrid fitness for binding parS DNA” value was not above 0.2. In the case of WTFI it was not above 0.2; in that of DLAG, not above 0.2. On to SLFM, for which the “one-hybrid fitness for binding parS DNA” value is not above 0.2. For TTKM, the “one-hybrid fitness for binding parS DNA” value was not above 0.2. Consider DIGS, for which the “one-hybrid fitness for binding parS DNA” value was not above 0.2.

Regarding QSAK, the “one-hybrid fitness for binding parS DNA” value was not above 0.2. On to TASF, for which the “one-hybrid fitness for binding parS DNA” value is not above 0.2.

As to PHDN, the “one-hybrid fitness for binding parS DNA” value is not above 0.2. To RHHS belongs 0.914; to WVFS, not above 0.2.

Take SMWA: the “one-hybrid fitness for binding parS DNA” value is not above 0.2. In the case of HMLM it was not above 0.2. Consider VGAC, for which the “one-hybrid fitness for binding parS DNA” value is not above 0.2. To PPLI belongs not above 0.2; to GHWM, not above 0.2; to YYCR, not above 0.2. For the variant NANA, the “one-hybrid fitness for binding parS DNA” value is not above 0.2. To DIYG belongs not above 0.2; to VSIR, not above 0.2. To AGLS belongs not above 0.2; to HNGA, not above 0.2. To VDDD belongs not above 0.2; to NTYT, not above 0.2.

For the variant TNKV, the “one-hybrid fitness for binding parS DNA” value was not above 0.2. Consider KAMI, for which the “one-hybrid fitness for binding parS DNA” value is not above 0.2.

WTQG: the “one-hybrid fitness for binding parS DNA” value is not above 0.2. Turning to FEYV, the “one-hybrid fitness for binding parS DNA” value was not above 0.2.

Regarding WAHG, the “one-hybrid fitness for binding parS DNA” value was not above 0.2. Turning to VPTW, the “one-hybrid fitness for binding parS DNA” value was not above 0.2. To DQSF belongs not above 0.2; to QDEM, not above 0.2.

As to GNNT, the “one-hybrid fitness for binding parS DNA” value is not above 0.2. In the case of YKPT it was not above 0.2; in that of PHIQ, not above 0.2; in that of VMQW, not above 0.2. In the case of QSAW it was not above 0.2; in that of GASQ, not above 0.2; in that of LHHG, not above 0.2. On to YKNA, for which the “one-hybrid fitness for binding parS DNA” value was not above 0.2. For LMIR, the “one-hybrid fitness for binding parS DNA” value is not above 0.2. With NSRR, the “one-hybrid fitness for binding parS DNA” value is not above 0.2. To PTYM belongs not above 0.2; to HWVG, not above 0.2. In the case of DGAP, the “one-hybrid fitness for binding parS DNA” value is not above 0.2. In the case of PEGA it was not above 0.2; in that of TFRV, not above 0.2; in that of MLSR, not above 0.2. To RQTE belongs not above 0.2. To KRAR belongs not above 0.2; to SNVF, not above 0.2; to ELTC, not above 0.2. TWEL: the “one-hybrid fitness for binding parS DNA” value was not above 0.2. In the case of ARNS it was not above 0.2; in that of RIYW, 0.296; in that of RFAM, 0.254. In the case of VTMI it was not above 0.2. As for RHNW, the “one-hybrid fitness for binding parS DNA” value is not above 0.2.

Regarding AIMF, the “one-hybrid fitness for binding parS DNA” value was not above 0.2. DMVG: the “one-hybrid fitness for binding parS DNA” value was not above 0.2. Turning to NYEF, the “one-hybrid fitness for binding parS DNA” value is not above 0.2. In the case of QQDR it was not above 0.2; in that of CVER, not above 0.2. For ETSN, the “one-hybrid fitness for binding parS DNA” value is not above 0.2. TYKL: the “one-hybrid fitness for binding parS DNA” value was not above 0.2. To CLVL belongs not above 0.2. For the variant VMWG, the “one-hybrid fitness for binding parS DNA” value was not above 0.2. As to LAMC, the “one-hybrid fitness for binding parS DNA” value is not above 0.2.

In the case of SPSL, the “one-hybrid fitness for binding parS DNA” value is not above 0.2.

For the variant RWRG, the “one-hybrid fitness for binding parS DNA” value came to 0.881.

For NTYF, the “one-hybrid fitness for binding parS DNA” value is not above 0.2.

With GQLC, the “one-hybrid fitness for binding parS DNA” value is not above 0.2.

Consider PGFC, for which the “one-hybrid fitness for binding parS DNA” value was not above 0.2.

In the case of FFIS, the “one-hybrid fitness for binding parS DNA” value was not above 0.2. On to PTLF, for which the “one-hybrid fitness for binding parS DNA” value was not above 0.2.

Values taken from a collection of fitness landscapes (doi:10.1016/j.celrep.2020.107928).
